# Laboratory results reported in the supplement of paper PMC8728848.
# The other results are listed elsewhere or left out.
# Experiments:
# Assay in all cases: glycan array binding signal (z-score within array); higher = stronger binding
# Details in all cases: glycan notation: IUPAC condensed, linker removed
# [1] = biological target: GlcNAc(b1-2)[GlcNAc(b1-4)]Man(a1-3)[GlcNAc(b1-4)][GlcNAc(b1-2)[GlcNAc(b1-6)]Man(a1-6)]Man(b1-4)GlcNAc(b1-4)GlcNAc
# Summary of the method: (§1)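 Negative Z-scores can be read as non-binding. The Z-score is calculated within each array and then averaged across arrays of one protein sequence at different concentrations or buffers and across linkers. Arrays, 3228 in all, were curated from the Consortium for Functional Glycomics database and kept only where the protein sequence was available.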
# [2] = biological target: GlcNAc(b1-2)[GlcNAc(b1-4)]Man(a1-3)[GlcNAc(b1-4)][GlcNAc(b1-2)[GlcNAc(b1-6)]Man(a1-6)]Man(b1-4)GlcNAc(b1-4)[Fuc(a1-6)]GlcNAc
# Summary of the method: as §1
# [3] = biological target: GlcNAc(b1-2)[GlcNAc(b1-6)]Man(a1-6)[GlcNAc(b1-2)Man(a1-3)]Man(b1-4)GlcNAc(b1-4)GlcNAc
# Summary of the method: as §1
# [4] = biological target: GlcNAc(b1-2)[GlcNAc(b1-6)]Man(a1-6)[GlcNAc(b1-2)Man(a1-3)]Man(b1-4)GlcNAc(b1-4)[Fuc(a1-6)]GlcNAc
# Summary of the method: as §1
# [5] = biological target: GlcNAc(b1-2)[GlcNAc(b1-6)]Man(a1-6)[GlcNAc(b1-2)Man(a1-3)][GlcNAc(b1-4)]Man(b1-4)GlcNAc(b1-4)GlcNAc
# Summary of the method: as §1
# [6] = biological target: GlcNAc(b1-2)[GlcNAc(b1-6)]Man(a1-6)[GlcNAc(b1-4)][GlcNAc(b1-2)Man(a1-3)]Man(b1-4)GlcNAc(b1-4)GlcNAc
# Summary of the method: as §1
# GlcNAc(b1-3)Fuc = biological target: GlcNAc(b1-3)Fuc
# Summary of the method: as §1
# GlcNAc(b1-3)Gal = biological target: GlcNAc(b1-3)Gal
# Summary of the method: as §1
# [7] = biological target: GlcNAc(b1-3)Gal(b1-3)GalNAc
# Summary of the method: as §1
# GlcNAc(b1-3)Gal(b1-4)Glc = biological target: GlcNAc(b1-3)Gal(b1-4)Glc
# Summary of the method: as §1
# [8] = biological target: GlcNAc(b1-3)Gal(b1-4)GlcNAc
# Summary of the method: as §1
# [9] = biological target: GlcNAc(b1-3)Gal(b1-4)GlcNAc(b1-2)Man(a1-3)[GlcNAc(b1-3)Gal(b1-4)GlcNAc(b1-2)Man(a1-6)]Man(b1-4)GlcNAc(b1-4)GlcNAc
# Summary of the method: as §1
# [10] = biological target: GlcNAc(b1-3)Gal(b1-4)GlcNAc(b1-2)Man(a1-3)[GlcNAc(b1-3)Gal(b1-4)GlcNAc(b1-2)Man(a1-6)]Man(b1-4)GlcNAc(b1-4)[Fuc(a1-6)]GlcNAc
# Summary of the method: as §1
# [11] = biological target: GlcNAc(b1-3)Gal(b1-4)GlcNAc(b1-2)[GlcNAc(b1-3)Gal(b1-4)GlcNAc(b1-6)]Man(a1-6)[GlcNAc(b1-3)Gal(b1-4)GlcNAc(b1-2)Man(a1-3)]Man(b1-4)GlcNAc(b1-4)GlcNAc
# Summary of the method: as §1
# [12] = biological target: GlcNAc(b1-3)Gal(b1-4)GlcNAc(b1-3)Gal(b1-4)GlcNAc
# Summary of the method: as §1
# [13] = biological target: GlcNAc(b1-3)Gal(b1-4)GlcNAc(b1-3)Gal(b1-4)GlcNAc(b1-2)Man(a1-3)[GlcNAc(b1-3)Gal(b1-4)GlcNAc(b1-3)Gal(b1-4)GlcNAc(b1-2)Man(a1-6)]Man(b1-4)GlcNAc(b1-4)GlcNAc
# Summary of the method: as §1
# [14] = biological target: GlcNAc(b1-3)Gal(b1-4)GlcNAc(b1-3)Gal(b1-4)GlcNAc(b1-2)Man(a1-3)[GlcNAc(b1-3)Gal(b1-4)GlcNAc(b1-3)Gal(b1-4)GlcNAc(b1-2)Man(a1-6)]Man(b1-4)GlcNAc(b1-4)[Fuc(a1-6)]GlcNAc
# Summary of the method: as §1
# [15] = biological target: GlcNAc(b1-3)Gal(b1-4)GlcNAc(b1-3)Gal(b1-4)GlcNAc(b1-2)[GlcNAc(b1-3)Gal(b1-4)GlcNAc(b1-3)Gal(b1-4)GlcNAc(b1-6)]Man(a1-6)[GlcNAc(b1-3)Gal(b1-4)GlcNAc(b1-3)Gal(b1-4)GlcNAc(b1-2)Man(a1-3)]Man(b1-4)GlcNAc(b1-4)[Fuc(a1-6)]GlcNAc
# Summary of the method: as §1
# [16] = biological target: GlcNAc(b1-3)Gal(b1-4)GlcNAc(b1-3)Gal(b1-4)GlcNAc(b1-3)Gal(b1-4)GlcNAc(b1-2)Man(a1-3)[GlcNAc(b1-3)Gal(b1-4)GlcNAc(b1-3)Gal(b1-4)GlcNAc(b1-3)Gal(b1-4)GlcNAc(b1-2)Man(a1-6)]Man(b1-4)GlcNAc(b1-4)GlcNAc
# Summary of the method: as §1
# [17] = biological target: GlcNAc(b1-3)Gal(b1-4)GlcNAc(b1-3)Gal(b1-4)GlcNAc(b1-3)Gal(b1-4)GlcNAc(b1-2)Man(a1-3)[GlcNAc(b1-3)Gal(b1-4)GlcNAc(b1-3)Gal(b1-4)GlcNAc(b1-3)Gal(b1-4)GlcNAc(b1-2)Man(a1-6)]Man(b1-4)GlcNAc(b1-4)[Fuc(a1-6)]GlcNAc
# Summary of the method: as §1
# [18] = biological target: GlcNAc(b1-3)Gal(b1-4)GlcNAc(b1-3)Gal(b1-4)GlcNAc(b1-3)Gal(b1-4)GlcNAc(b1-2)[GlcNAc(b1-3)Gal(b1-4)GlcNAc(b1-3)Gal(b1-4)GlcNAc(b1-3)Gal(b1-4)GlcNAc(b1-6)]Man(a1-6)[GlcNAc(b1-3)Gal(b1-4)GlcNAc(b1-3)Gal(b1-4)GlcNAc(b1-3)Gal(b1-4)GlcNAc(b1-2)Man(a1-3)]Man(b1-4)GlcNAc(b1-4)[Fuc(a1-6)]GlcNAc
# Summary of the method: as §1
# [19] = biological target: GlcNAc(b1-3)Gal(b1-4)GlcNAc(b1-3)Gal(b1-4)GlcNAc(b1-3)Gal(b1-4)GlcNAc(b1-3)Gal(b1-4)GlcNAc(b1-2)Man(a1-3)[GlcNAc(b1-3)Gal(b1-4)GlcNAc(b1-3)Gal(b1-4)GlcNAc(b1-3)Gal(b1-4)GlcNAc(b1-3)Gal(b1-4)GlcNAc(b1-2)Man(a1-6)]Man(b1-4)GlcNAc(b1-4)GlcNAc
# Summary of the method: as §1
# [20] = biological target: GlcNAc(b1-3)Gal(b1-4)GlcNAc(b1-3)Gal(b1-4)GlcNAc(b1-3)Gal(b1-4)GlcNAc(b1-3)Gal(b1-4)GlcNAc(b1-2)Man(a1-3)[GlcNAc(b1-3)Gal(b1-4)GlcNAc(b1-3)Gal(b1-4)GlcNAc(b1-3)Gal(b1-4)GlcNAc(b1-3)Gal(b1-4)GlcNAc(b1-2)Man(a1-6)]Man(b1-4)GlcNAc(b1-4)[Fuc(a1-6)]GlcNAc
# Summary of the method: as §1
# [21] = biological target: GlcNAc(b1-3)Gal(b1-4)GlcNAc(b1-3)Gal(b1-4)GlcNAc(b1-3)Gal(b1-4)GlcNAc(b1-3)Gal(b1-4)GlcNAc(b1-2)[GlcNAc(b1-3)Gal(b1-4)GlcNAc(b1-3)Gal(b1-4)GlcNAc(b1-3)Gal(b1-4)GlcNAc(b1-3)Gal(b1-4)GlcNAc(b1-6)]Man(a1-6)[GlcNAc(b1-3)Gal(b1-4)GlcNAc(b1-3)Gal(b1-4)GlcNAc(b1-3)Gal(b1-4)GlcNAc(b1-3)Gal(b1-4)GlcNAc(b1-2)Man(a1-3)]Man(b1-4)GlcNAc(b1-4)[Fuc(a1-6)]GlcNAc
# Summary of the method: as §1
# [22] = biological target: GlcNAc(b1-3)Gal(b1-4)GlcNAc(b1-3)Gal(b1-4)GlcNAc(b1-3)GalNAc
# Summary of the method: as §1
# [23] = biological target: GlcNAc(b1-3)Gal(b1-4)GlcNAc(b1-3)GalNAc
# Summary of the method: as §1
# [24] = biological target: GlcNAc(b1-3)Gal(b1-4)GlcNAc(b1-3)[GlcNAc(b1-3)Gal(b1-4)GlcNAc(b1-3)]GalNAc
# Summary of the method: as §1
# [25] = biological target: GlcNAc(b1-3)Gal(b1-4)GlcNAc(b1-6)[Gal(b1-3)]GalNAc
# Summary of the method: as §1
# [26] = biological target: GlcNAc(b1-3)Gal(b1-4)GlcNAc(b1-6)[GlcNAc(b1-3)Gal(b1-3)]GalNAc
# Summary of the method: as §1
# [27] = biological target: GlcNAc(b1-3)Gal(b1-4)GlcNAc(b1-6)[GlcNAc(b1-3)]Gal(b1-4)GlcNAc
# Summary of the method: as §1
# GlcNAc(b1-3)GalNAc = biological target: GlcNAc(b1-3)GalNAc
# Summary of the method: as §1
# GlcNAc(b1-3)Man = biological target: GlcNAc(b1-3)Man
# Summary of the method: as §1
# [28] = biological target: GlcNAc(b1-3)[GlcNAc(b1-4)][GlcNAc(b1-6)]GlcNAc
# Summary of the method: as §1
# [29] = biological target: GlcNAc(b1-3)[GlcNAc(b1-6)]Gal(b1-4)GlcNAc
# Summary of the method: as §1
# [30] = biological target: GlcNAc(b1-3)[GlcNAc(b1-6)]GalNAc
# Summary of the method: as §1
# [31] = biological target: GlcNAc(b1-3)[GlcNAc(b1-6)]GlcNAc
# Summary of the method: as §1
# [32] = biological target: GlcNAc(b1-4)Gal(b1-4)GlcNAc
# Summary of the method: as §1
# GlcNAc(b1-4)GlcNAc = biological target: GlcNAc(b1-4)GlcNAc
# Summary of the method: as §1
# [33] = biological target: GlcNAc(b1-4)GlcNAc(b1-4)GlcNAc
# Summary of the method: as §1
# [34] = biological target: GlcNAc(b1-4)GlcNAc(b1-4)GlcNAc(b1-4)GlcNAc(b1-4)GlcNAc
# Summary of the method: as §1
# [35] = biological target: GlcNAc(b1-4)GlcNAc(b1-4)GlcNAc(b1-4)GlcNAc(b1-4)GlcNAc(b1-4)GlcNAc
# Summary of the method: as §1
# [36] = biological target: GlcNAc(b1-4)[GlcNAc(b1-6)]GalNAc
# Summary of the method: as §1
# [37] = biological target: GlcNAc(b1-6)Gal(b1-4)GlcNAc
# Summary of the method: as §1
# GlcNAc(b1-6)GalNAc = biological target: GlcNAc(b1-6)GalNAc
# Summary of the method: as §1
# GlcNAc3Prop(b1-4)GlcNAc = biological target: GlcNAc3Prop(b1-4)GlcNAc
# Summary of the method: as §1
binder,measurement,setting,value
"Nictaba (Nicotiana tabacum), Q94EW1 (protein) MQGQWIAARDLSITWVDNPQYWTWKTVDPNIEVAELRRVAWLDIYGKIETKNLIRKTSYAVYLVFKLTDNPRELERATASLRFVNEVAEGAGIEGTTVFISKKKKLPGELGRFPHLRSDGWLEIKLGEFFNNLGEDGEVEMRLMEINDKTWKSGIIVKGFDIRPN",glycan array binding signal (z-score),[1],-0.253
same,glycan array binding signal (z-score),[2],-0.372
same,glycan array binding signal (z-score),[3],1.57
same,glycan array binding signal (z-score),[4],2.27
same,glycan array binding signal (z-score),[5],-0.182
same,glycan array binding signal (z-score),[6],-0.382
same,glycan array binding signal (z-score),GlcNAc(b1-3)Fuc,-0.386
same,glycan array binding signal (z-score),GlcNAc(b1-3)Gal,-0.285
same,glycan array binding signal (z-score),[7],-0.35
same,glycan array binding signal (z-score),GlcNAc(b1-3)Gal(b1-4)Glc,-0.284
same,glycan array binding signal (z-score),[8],-0.307
same,glycan array binding signal (z-score),[9],2.81
same,glycan array binding signal (z-score),[10],3.19
same,glycan array binding signal (z-score),[11],0.107
same,glycan array binding signal (z-score),[12],-0.285
same,glycan array binding signal (z-score),[13],1.39
same,glycan array binding signal (z-score),[14],2.94
same,glycan array binding signal (z-score),[15],0.295
same,glycan array binding signal (z-score),[16],2.71
same,glycan array binding signal (z-score),[17],2.59
same,glycan array binding signal (z-score),[18],0.017
same,glycan array binding signal (z-score),[19],1.79
same,glycan array binding signal (z-score),[20],3.52
same,glycan array binding signal (z-score),[21],0.068
same,glycan array binding signal (z-score),[22],-0.388
same,glycan array binding signal (z-score),[23],-0.389
same,glycan array binding signal (z-score),[24],-0.387
same,glycan array binding signal (z-score),[25],-0.389
same,glycan array binding signal (z-score),[26],-0.387
same,glycan array binding signal (z-score),[27],-0.379
same,glycan array binding signal (z-score),GlcNAc(b1-3)GalNAc,-0.226
same,glycan array binding signal (z-score),GlcNAc(b1-3)Man,-0.291
same,glycan array binding signal (z-score),[28],-0.316
same,glycan array binding signal (z-score),[29],-0.269
same,glycan array binding signal (z-score),[30],-0.25
same,glycan array binding signal (z-score),[31],-0.323
same,glycan array binding signal (z-score),[32],-0.247
same,glycan array binding signal (z-score),GlcNAc(b1-4)GlcNAc,-0.293
same,glycan array binding signal (z-score),[33],2.26
same,glycan array binding signal (z-score),[34],2.98
same,glycan array binding signal (z-score),[35],2.81
same,glycan array binding signal (z-score),[36],-0.288
same,glycan array binding signal (z-score),[37],-0.286
same,glycan array binding signal (z-score),GlcNAc(b1-6)GalNAc,-0.277
same,glycan array binding signal (z-score),GlcNAc3Prop(b1-4)GlcNAc,-0.227
